These results are taken from the supplement of paper PMC4604168 (melanoma cell lines).

Some of the results follow. Repeats are few or missing, and single values can be far off.
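Note: cells treated in 1,536-well plates, then fixed and DAPI-stained, with nuclei counted from automated high-throughput microscope images.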

The subject of this test is COLO792. The experiment in a line: cell count relative to DMSO control; melanoma cells; higher = more viable cells. To be noted: library dose: standard library concentration; 72 h.
As for `CC[C@]1(O)C[C@H]2CN(CCc3c([nH]c4ccccc34)[C@@](C(=O)OC)(c3cc4c(cc3OC)N(C=O)[C@H]3[C@@](O)(C(=O)OC)[C@H](OC(C)=O)[C@]5(CC)C=CCN6CC[C@]43[C@@H]65)C2)C1` [vincristine] + COc1ccc2c(c1)CCC1C2CCC2(C)C(NCCCCCCN3C(=O)C=CC3=O)CCC12 [U73122] (first compound 0.0005 µM, partner dose 2 µM), the cell count is 120%.

Take `Cc1cc(Nc2cc(N3CCN(C)CC3)nc(Sc3ccc(NC(=O)C4CC4)cc3)n2)n[nH]1` [Tozasertib] + N#Cc1c(O)c2c(-c3ccc(-c4ccccc4O)cc3)csc2[nH]c1=O [A769662] (first compound 0.03 µM, partner dose 10 µM): the cell count worked out at 86.4%.

For the compound `Cc1cc(Nc2cc(N3CCN(C)CC3)nc(Sc3ccc(NC(=O)C4CC4)cc3)n2)n[nH]1` [Tozasertib] + Cn1cncc1[C@@](N)(c1ccc(Cl)cc1)c1ccc2c(c1)c(-c1cccc(Cl)c1)cc(=O)n2C [tipifarnib] (first compound 0.03 µM, partner dose 0.05 µM), the cell count was 107%.

Compound `Cc1cc(Nc2cc(N3CCN(C)CC3)nc(Sc3ccc(NC(=O)C4CC4)cc3)n2)n[nH]1` [Tozasertib] + C#Cc1cccc(Nc2ncnc3cc(OCCOC)c(OCCOC)cc23)c1 [erlotinib] (first compound 0.03 µM, partner dose 4 µM) gave a cell count of 59%.

The compound `Cc1cc(Nc2cc(N3CCN(C)CC3)nc(Sc3ccc(NC(=O)C4CC4)cc3)n2)n[nH]1` [Tozasertib] + COc1cc(N2CCC(N3CCN(C)CC3)CC2)ccc1Nc1ncc(Cl)c(Nc2ccccc2S(=O)(=O)C(C)C)n1 [NVP-TAE684] (first compound 0.03 µM, partner dose 0.4 µM) showed a cell count of 80.5%.

`CC[C@]1(O)C[C@H]2CN(CCc3c([nH]c4ccccc34)[C@@](C(=O)OC)(c3cc4c(cc3OC)N(C=O)[C@H]3[C@@](O)(C(=O)OC)[C@H](OC(C)=O)[C@]5(CC)C=CCN6CC[C@]43[C@@H]65)C2)C1` [vincristine] + CCc1ccc(CCOc2ccc(CC3SC(=O)NC3=O)cc2)nc1 [pioglitazone] (first compound 0.0005 µM, partner dose 10 µM) had a cell count of 53.7%.

In turn, `Cc1cc(Nc2cc(N3CCN(C)CC3)nc(Sc3ccc(NC(=O)C4CC4)cc3)n2)n[nH]1` [Tozasertib] + COc1cc(Nc2ncc(F)c(Nc3ccc4c(n3)NC(=O)C(C)(C)O4)n2)cc(OC)c1OC [Tamatinib] (first compound 0.03 µM, partner dose 2 µM) gave a cell count of 31.5%.

For `Cc1cc(Nc2cc(N3CCN(C)CC3)nc(Sc3ccc(NC(=O)C4CC4)cc3)n2)n[nH]1` [Tozasertib] + C[C@@H](Oc1cc(-c2cnn(C3CCNCC3)c2)cnc1N)c1c(Cl)ccc(F)c1Cl [Crizotinib] (first compound 0.03 µM, partner dose 1 µM), the cell count turned out to be 65.1%.

The compound `CC[C@]1(O)C[C@H]2CN(CCc3c([nH]c4ccccc34)[C@@](C(=O)OC)(c3cc4c(cc3OC)N(C=O)[C@H]3[C@@](O)(C(=O)OC)[C@H](OC(C)=O)[C@]5(CC)C=CCN6CC[C@]43[C@@H]65)C2)C1` [vincristine] + CN(NC(=O)CC(=O)NN(C)C(=S)c1ccccc1)C(=S)c1ccccc1 [STA4783] (first compound 0.0005 µM, partner dose 0.03 µM) returned a cell count of 29.3%.

In the case of `CC[C@]1(O)C[C@H]2CN(CCc3c([nH]c4ccccc34)[C@@](C(=O)OC)(c3cc4c(cc3OC)N(C=O)[C@H]3[C@@](O)(C(=O)OC)[C@H](OC(C)=O)[C@]5(CC)C=CCN6CC[C@]43[C@@H]65)C2)C1` [vincristine] + NC1(c2ccc(-c3nc4ccn5c(=O)[nH]nc5c4cc3-c3ccccc3)cc2)CCC1 [MK2206] (first compound 0.0005 µM, partner dose 2 µM), the cell count was determined as 56.9%.

The compound `CC[C@]1(O)C[C@H]2CN(CCc3c([nH]c4ccccc34)[C@@](C(=O)OC)(c3cc4c(cc3OC)N(C=O)[C@H]3[C@@](O)(C(=O)OC)[C@H](OC(C)=O)[C@]5(CC)C=CCN6CC[C@]43[C@@H]65)C2)C1` [vincristine] + O=C(O)c1ccc(-c2c[nH]c3ncc(-c4ccccc4)cc23)cc1C1CCCC1 [GSK650394] (first compound 0.0005 µM, partner dose 0.8 µM) had a cell count of 104%.

Turning to `CC[C@]1(O)C[C@H]2CN(CCc3c([nH]c4ccccc34)[C@@](C(=O)OC)(c3cc4c(cc3OC)N(C=O)[C@H]3[C@@](O)(C(=O)OC)[C@H](OC(C)=O)[C@]5(CC)C=CCN6CC[C@]43[C@@H]65)C2)C1` [vincristine] + COc1ccc(C2=N[C@@H](c3ccc(Cl)cc3)[C@@H](c3ccc(Cl)cc3)N2C(=O)N2CCNC(=O)C2)c(OC(C)C)c1 [Nutlin-3] (first compound 0.0005 µM, partner dose 0.5 µM), the cell count was found to be 88%.

In the case of `N#CC[C@H](C1CCCC1)n1cc(-c2ncnc3[nH]ccc23)cn1` [ruxolitinib] + CC(=O)c1c(C)c2cnc(Nc3ccc(N4CCNCC4)cn3)nc2n(C2CCCC2)c1=O [palbociclib] (first compound 5 µM, partner dose 0.2 µM), the cell count was determined as 38.3%.
